# The campaign covered roughly 340,000 compounds. About 6,900 (2%) were called active. Cut-off read from the data, not from the text of the source: active = inhibition above about 30%; inactive = below that, where a call was filed. This is a selection; strong and weak results do not stand in their true shares. Where no call is shown, the source filed none.
# Biological target: D(2) dopamine receptor (Homo sapiens) (UniProt P14416)
# Assay: HTS Assay for Allosteric Antagonists of the Human D2 Dopamine Receptor: Primary Screen for Antagonists; note: 0% is about no effect
# Conditions: HEK293 TREx D2 cells, calcium flux, dopamine EC80; at 10 µM; stronger effect = higher value
# Method in brief: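 Compounds are added to dye-loaded, induced HEK293 T-REx cells coupled to calcium release via D2; after a 3 min kinetic read an EC80 dopamine stimulus is given and fluorescence is recorded for 3 more min.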
# Chain of UniProt P14416 (P14416 whole entry, looked up): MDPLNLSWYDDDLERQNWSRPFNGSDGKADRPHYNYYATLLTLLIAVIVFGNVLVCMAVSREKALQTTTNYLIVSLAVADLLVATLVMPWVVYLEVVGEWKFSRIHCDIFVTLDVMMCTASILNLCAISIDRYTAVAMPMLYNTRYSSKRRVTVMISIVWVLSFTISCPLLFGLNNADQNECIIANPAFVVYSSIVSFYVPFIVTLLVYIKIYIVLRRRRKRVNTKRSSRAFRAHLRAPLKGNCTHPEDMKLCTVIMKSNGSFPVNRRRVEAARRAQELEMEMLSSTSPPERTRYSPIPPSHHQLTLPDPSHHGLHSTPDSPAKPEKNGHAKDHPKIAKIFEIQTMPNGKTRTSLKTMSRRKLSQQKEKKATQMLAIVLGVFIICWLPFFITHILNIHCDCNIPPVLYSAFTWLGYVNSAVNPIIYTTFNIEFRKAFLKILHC
row,SMILES,inhibition
1,Cc1ccc(C(=O)CCC(=O)Nc2ccc(C)cc2C)cc1,7.25%
2,CCc1ccccc1NC(=O)N1CCC(CN2CCc3ccccc3C2)CC1,-22.6%
3,CC1CCN(S(=O)(=O)c2ccc3c(ccc(=O)n3CC(=O)Nc3ccc(C(C)C)cc3)c2)CC1,4.83%
4,COc1ccc(S(=O)(=O)N(CC(=O)NCc2ccncc2)c2ccc(C)cc2)cc1Br,active: 33.3%
5,Nc1nc(SCC(=O)Nc2cccc(C(F)(F)F)c2)n[nH]1,-11.2%
6,Clc1ccc(CN2CCN(c3ccccc3)CC2)cn1,active: 89.9%
7,CCOC(=O)c1c(-c2ccc(C)cc2)csc1NC(=O)c1cc(-c2ccc(Cl)cc2)on1,0.66%
8,COc1cccc(-n2c(=O)c3c(C)c(C)sc3n(CC(=O)Nc3ccccc3OC)c2=O)c1,24.8%
9,Cc1ccccc1CC1C(=O)Nc2ccc(Br)cc21 (configuration not stated),6.17%
10,CCc1ccc(CNCc2c(C(=O)O)c(C)n(Cc3c(F)cccc3Cl)c2C)cc1,-1.79%
11,CCOc1cccc(C(=O)N(Cc2ccc(N(C)C)cc2)CC2CCCO2)c1 (configuration not stated),2.05%
12,CCOc1cc(CNc2ccc(C(=O)O)cc2)ccc1OCc1ccccc1,-14%
13,CCc1ccccc1NC(=S)NC1CC2CCC(C1)N2Cc1ccc(F)cc1 (configuration not stated),active: 78.3%
14,CC1CCC(Nc2ncnc3onc(-c4ccc(F)cc4)c23)CC1 (configuration not stated),-0.234%
15,O=C(O)c1c(-c2ccccc2)oc2ccc(OCc3ccc(Cl)c(Cl)c3)cc12,-7.76%
16,CCN1CCc2c(sc(N)c2C(N)=O)C1,active: 38%
17,Cc1cc(C)cc(NS(=O)(=O)c2ccc(-n3cccn3)cc2)c1,-6.76%
18,O=C(COc1ccccc1)N1CCN(c2ccccc2)CC1,active: 30.1%
19,Cn1cc(CCC(=O)NCc2ccc(Cl)cc2)c2ccccc21,8.33%
20,COCCCNC(=O)c1oc2c(c1C)-c1nn(Cc3ccc(Cl)cc3)cc1CC2,-25.6%
21,COc1ccc(-c2cccc(NS(=O)(=O)c3ccc(C)s3)c2)nn1,0.857%
22,Cc1ccc(CSCCNC(=O)c2ccc(C)cc2)cc1,active: 31.9%
23,COc1cccc(N2C(=O)CSC23C(=O)N(Cc2ccccc2)c2ccccc23)c1 (configuration not stated),-2.73%
24,Cn1ccnc1SCC(=O)Nc1ccc(Cl)cn1,active: 30.8%
25,Cc1ccc(C)c(CSc2cn(CC(=O)N3CCCCCC3)c3ccccc23)c1,0.925%

row,SMILES,inhibition
1,CCCCS(=O)(=O)N1C2=NC(C(=O)OC)=C(C(=O)OC)[C@@H]3N(C)c4ccc(OC)cc4[C@]23C[C@H]1C(=O)OC,active: 34.2%
2,COc1ccc(-c2csc3nc(-c4ccc(F)cc4)oc(=O)c23)cc1,8.03%
3,COc1ccc(NC(=O)CCCc2nnc3n(CCC(C)C)c(=O)c4sccc4n23)c(OC)c1,-5.2%
4,COCCNC(=O)c1ccc(-n2c(-c3ccccc3)cc3c2CCCCC3)cc1,8.05%
5,COc1ccccc1NC(=O)CN1CCN(c2ccccc2)CC1,active: 39.1%
6,COc1ccc(C(=O)/C=C/c2cn(CC(O)CN(CC(C)C)CC(C)C)c3ccccc23)cc1 (configuration not stated),-6.15%
7,CCCC(=O)N(c1ccc2oc(C)c(C(C)=O)c2c1)S(=O)(=O)c1ccc(C)cc1,0.931%
8,CCOC(=O)c1nc(N2CCN(c3ccc(F)cc3)CC2)c2c(C)noc2n1,0.274%
9,CCn1c(=O)n(-c2ccc(F)c(Cl)c2)c(=O)c2c3c(sc21)CN(C(C)=O)CC3,1.75%
10,COc1cccc(C(=O)Nc2ccc(-c3nc4ccccc4s3)cc2Cl)c1,-11.1%
11,CCS(=O)(=O)N1CCC(n2c(C)nc3cccnc32)CC1,7.32%
12,Cc1ccc(Cl)c(NC(=O)Nc2csc3c2CCCC3)c1,-8.8%
13,COc1cc2oc(=O)c(CC(=O)N3CCCCC3)c(C)c2cc1OC,-13.1%
14,CC(C(=O)NCC1CCCCC1)N1CCc2ccccc2C1 (configuration not stated),active: 54.4%
15,COc1ccc(OC)c(CCNC(=O)c2ccc(NC3=NC4CS(=O)(=O)CC4S3)cc2)c1 (configuration not stated),active: 34.5%
16,Cc1ccc(S(=O)(=O)c2nc(-c3ccccc3Cl)oc2N2CCCCCC2)cc1,-13.2%
17,CCc1ccc(NC(=O)C(=O)NCC(c2ccc3c(c2)OCO3)N2CCOCC2)cc1 (configuration not stated),3.6%
18,COc1ccc(-c2cc(C(=O)Nc3ccn(Cc4ccc(C)cc4)n3)no2)cc1OC,-6.09%
19,COc1ccc(-c2noc(-c3ccc(NCc4cccnc4)c([N+](=O)[O-])c3)n2)cc1,8.75%
20,CCC(=O)N1CCc2cc(Br)cc(S(=O)(=O)CCC(=O)Nc3ccc(C)c(C)c3)c21,0.266%
21,O=C(NCc1ccccc1Cl)c1cnc2sc(N3CCOCC3)nn2c1=O,-5.59%
22,COC(=O)CNc1nc(Cl)nc(N2CCC(C)CC2)n1,active: 35.9%
23,CCn1cc(C(=O)NCCCN(CC(C)C)CC(C)C)c(=O)c2cc(S(=O)(=O)N(C)C3CCCCC3)ccc21,-3.88%
24,COc1ccc(NC(=O)CCc2nnc3n(C)c(=O)c4sccc4n23)cc1Cl,-3.71%
25,COc1cccc(N2C(=O)N(Cc3ccc(C#N)cc3)c3ccccc3S2(=O)=O)c1,-3.6%

row,SMILES,inhibition
1,CCc1ccccc1NC(=O)Cn1c(=O)n(CC2CCC(C(=O)NCCc3ccccc3)CC2)c(=O)c2ccccc21 (configuration not stated),11.7%
2,O=S(=O)(c1ccccc1F)N1CCC(Oc2ccc(-n3cnnn3)cc2)CC1,0.147%
3,COc1cccc(NS(=O)(=O)c2ccc3[nH]cc(C(=O)NCCc4ccccc4)c(=O)c3c2)c1,-6.17%
4,CN(Cc1ccccc1)C(=O)CSc1nc2ccsc2c(=O)n1-c1ccc(F)cc1,-4.02%
5,O=C(NCc1ccc(Cl)cc1)C1CCCN(c2cnccn2)C1 (configuration not stated),active: 36.2%
6,COc1cccc(CNc2nc3c(-c4ccccc4)nnn3c3ccccc23)c1,1.82%
7,COc1ccc(CCNC(=O)Cn2c(=O)n(-c3cc(OC)c(OC)c(OC)c3)c(=O)c3ccccc32)cc1OC,2.47%
8,Cc1ccc2oc(=O)c3cnn(CC(=O)N4CCN(c5cc(Cl)ccc5C)CC4)c3c2c1,15.7%
9,Cc1ccccc1C(OCCN(C)C)C1CCCCC1 (configuration not stated),active: 86.8%
10,CCOc1ccc(NC(=O)c2cc(S(=O)(=O)N3CCCCC3)c[nH]2)cc1,5.33%
11,O=C(CC1SC(N2CCCCC2)=NC1=O)Nc1cccc(C(F)(F)F)c1 (configuration not stated),active: 78.8%
12,CCc1ccccc1N(C)C(=O)c1cnc(N2CCOCC2)c2ccccc12,-9.63%
13,Cc1ccc(Cc2nc3ccccc3nc2SCC(=O)NCc2ccc(F)cc2)cc1,-2.94%
14,Cc1cc(Br)ccc1NC(=O)c1cn(C2CCCC2)c(=O)c2c1c1ccccc1n2C,5.86%
15,Cc1cccc(C(=O)N2CCc3cc(CNC(=O)Cc4ccc(F)cc4)ccc32)c1,-14.1%
16,COc1ccc(CCNc2ncnc3c2c(-c2ccccc2)cn3-c2ccc(F)cc2)cc1OC,-0.437%
17,COc1ccccc1N1CCN(Cc2cc3c(cc2[N+](=O)[O-])OCO3)CC1,active: 51.6%
18,CCC(=O)C1=C(c2cccc([N+](=O)[O-])c2)N(C(=O)CC)n2c(nnc2-c2ccccc2)S1,22.4%
19,CCCCNc1nc(Oc2ccc(OCC(N)=O)nn2)nc(N2CCOCC2)n1,3.32%
20,CCOc1cc(C2c3c(oc4ccc(F)cc4c3=O)C(=O)N2Cc2ccco2)ccc1O (configuration not stated),4.45%
21,Cc1ccc(-n2c(SCC(=O)Nc3ccc4c(c3)OCO4)nc3c([nH]c4ccccc43)c2=O)cc1,-6.11%
22,CCN(C(=O)Cn1cc(S(=O)(=O)Cc2ccccc2Cl)c2ccccc21)c1ccccc1,-0.607%
23,Cc1ccc(C)c(N2CCN(C(=O)Cn3c(-c4cccs4)cc4ccccc43)CC2)c1,11.3%
24,Cc1n[nH]c(C)c1S(=O)(=O)N1CCCC(C(=O)Nc2ccc(Cl)cc2)C1 (configuration not stated),-2.04%
25,Cc1ccc(N2CCN(C(=O)c3c4c(nc5ccccc35)C(=O)N(C3CCCCC3)C4)CC2)c(C)c1,4%

row,SMILES,inhibition
1,CCOC(=O)c1ccc(NC(=O)C(CC)Sc2nc3ncccc3o2)cc1 (configuration not stated),-1.89%
2,COc1ccc(C(=O)Nc2nc3c(s2)CCc2cc(OC)ccc2-3)cc1,1.73%
3,COCCCn1c(SCC(=O)NCc2ccccc2)nc2c(sc3ccccc32)c1=O,0.774%
4,CN(C)c1ccc(CNC(=O)C2CCN(S(=O)(=O)c3ccc4c(ccn4C)c3)CC2)cc1,3.3%
5,Cc1ccc(C)c(Nc2nn3c(=O)c4ccc(C(=O)NCCc5ccccc5)cc4nc3s2)c1,-12.2%
6,CSc1ncc(C(=O)NCc2ccccc2)c(-c2ccccc2)n1,-1.52%
7,CC(C)(C)n1cnc2cc(NCc3ccccc3Cl)ccc21,7.86%
8,COc1ccc(NC(=O)C2CCCN2S(=O)(=O)c2cccc3cccnc23)cc1OC (configuration not stated),9.88%
9,CC(C)Oc1ccc(CNC(=O)c2ccc(NC(=O)N3CCSc4ncccc43)cc2)cc1,8.03%
10,CCC(C(=O)NCc1ccccc1OC)n1nc(C)n2c(cc3sccc32)c1=O (configuration not stated),-4.07%
11,CCOC(=O)c1c(S(=O)(=O)NCC(=O)Nc2ccc(C)c(Cl)c2)c(C)n(C)c1C,14.2%
12,COc1ccc(-c2nc3sc(CCNC(=O)c4cccc(C(F)(F)F)c4)c(C)n3n2)cc1,6.15%
13,CCOc1ccc(C2c3[nH]c4ccccc4c3CCN2C(=O)Cc2cccc(OCC)c2OCC)cc1 (configuration not stated),-21.6%
14,OC(C#CCCN1CCCCC1)(c1ccccc1)c1ccccc1,active: 33.4%
15,CCOC(=O)c1cnc2ccc(C(=O)OC)cc2c1Nc1ccccc1CC,6.88%
16,Cc1ccccc1Cn1nnc2c(=O)[nH]c(C3CCN(C(=O)c4ccccc4)CC3)nc21,6.31%
17,COC(=O)c1ccccc1NC(=O)CSc1nc(-c2ccccc2)cc(C(F)(F)F)n1,4.53%
18,CC(=O)c1ccc(NC(=O)c2ccc3c(c2)N(Cc2cccc(Cl)c2)C(=O)c2ccccc2S3(=O)=O)cc1,-1.35%
19,O=C(NCc1ccccc1)c1ccc2c(c1)C(=O)N(CC1CCCO1)C2=O (configuration not stated),active: 31%
20,CCOC(=O)c1c(C)[nH]c(C)c1S(=O)(=O)N1CCC(C(=O)Nc2ccc(F)cc2F)CC1,1.92%
21,Cn1c(=O)oc2cc(S(=O)(=O)N3CCOCC3)ccc21,active: 45.9%
22,CCOCCc1nn2c(=O)cc(COC(=O)COc3ccccc3Cl)nc2s1,7.69%
